Experimental data taken from PubChem BioAssay AID894 (National Center for Advancing Translational Sciences (NCATS), 2007).
In all, about 150,000 compounds went through this assay and about 6,500 (4.3%) were called active. Inconclusive results, whose numbers are uncertain, are shown with a selection of clear calls. Calls follow the shape of the dose curve; as a rule, active = well fitted inhibition curve with a large enough effect (not every such curve was filed as active); inconclusive = small, poorly fitted or top-dose-only effect, or another doubt; inactive = no such curve, though single readings can be large or run the other way. Potencies of inconclusive entries are left out as doubtful fits.
% is scaled to controls: 0 for no effect and ±100 for the full control effect; potency is read from the fitted curve at half-maximal effect; tags tell the direction and shape of the fitted curve.

Each molecule was assayed against 15-hydroxyprostaglandin dehydrogenase [NAD(+)] (Homo sapiens) (UniProt P15428) (assay: qHTS Assay for Inhibitors of HPGD (15-Hydroxyprostaglandin Dehydrogenase)). Conditions: purified HPGD, NADH fluorescence kinetic, PGE2 substrate; activity change, negative = inhibition: active compounds read low.
UniProt P15428, sequence (P15428 whole entry, looked up): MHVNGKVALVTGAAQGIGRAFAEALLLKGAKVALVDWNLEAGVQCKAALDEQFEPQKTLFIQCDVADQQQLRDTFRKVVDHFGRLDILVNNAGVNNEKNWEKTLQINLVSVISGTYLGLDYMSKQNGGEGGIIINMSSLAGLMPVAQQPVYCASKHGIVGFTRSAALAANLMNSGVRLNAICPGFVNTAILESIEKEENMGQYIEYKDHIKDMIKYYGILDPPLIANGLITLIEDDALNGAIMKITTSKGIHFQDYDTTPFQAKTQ
Procedure, shortened: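 NADH formation kinetics: reaction with 30 uM PGE2 and 1 mM NAD+ (final), 20 nM enzyme, Tris-HCl pH 8 with Tween 20, after 15 min compound preincubation at room temperature. Fluorescence change, last versus first of five reads.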
For `Cc1ccc(CCNC(=O)NC(C)(C)C)cc1`, the activity change, negative = inhibition was inactive: -6.2%. `N#Cc1c(-c2ccc(Cl)cc2)ccn2nc(CCC(=O)O)nc12` was tested, and the Potency was inconclusive [inhibitor, partial curve]. For `Oc1ccc(N=Cc2ccc(O)c(O)c2)cc1`, the Potency was active: 28.2 µM. In the case of `CCOC(=O)CNC(=O)c1cn(C)c(=O)c2cc(OC)c(OC)cc12`, the Potency was inconclusive [inhibitor, partial curve]. In the case of `COC(=O)c1cccc(C23CC4(C2)[C@H](CN(C)[C@@H]4c2ccccc2)C3c2ccc(Cl)nc2)c1` (some centres not stated), the activity change, negative = inhibition was inactive: -6.64%. `CC(C)c1ccc(N2C(=O)CC(Sc3nc4ccccc4o3)C2=O)cc1` (configuration not stated) was tested, and the Potency was inconclusive [inhibitor, partial curve]. For `C=CCNC(=O)c1ccc(C(=O)c2ccccc2)cc1`, the Potency was active: 12.6 µM. With `CCCC(C(=O)OCC)P(=O)(c1ccccc1)c1ccccc1` (configuration not stated) the activity change, negative = inhibition was inactive: -2.11%. `CN(Cc1cnc2nc(N)nc(N)c2n1)c1ccc(C(=O)N[C@H](CCC(=O)O)C(=O)O)cc1` was tested, and the Potency was inconclusive [inhibitor, partial curve, poor fit]. With `CCNC(=O)c1cc2c(=O)n3cccc(C)c3nc2n(CCc2ccccc2)c1=N` the Potency was inconclusive [inhibitor, partial curve]. `CC1OC(Nc2cccc3ccccc23)C(O)C(O)C1O` (configuration not stated) was tested, and the Potency was inconclusive [inhibitor, partial curve]. For `CN1C(=O)c2oc3ccccc3c(=O)c2C1c1ccncc1` (configuration not stated), the Potency was inconclusive [inhibitor, single point]. `CCC(C)c1ccc(-c2cc(C(=O)OCC(=O)Nc3cc(C)on3)c3ccccc3n2)cc1` (configuration not stated) was tested, and the Potency was inconclusive [inhibitor, partial curve]. In the case of `Cc1oc(-c2ccccc2)nc1CS(=O)CC(=O)N1CCc2ccccc2C1` (configuration not stated), the Potency was inconclusive [inhibitor, single point]. With `CCCCNC(=S)N(Cc1ccco1)Cc1cc2cc3c(cc2[nH]c1=O)OCCO3` the Potency was inconclusive [inhibitor, single point]. `COCCNC(=O)c1sc2nc(-c3ccccc3)cn2c1C` was tested, and the Potency was inconclusive [inhibitor, partial curve]. For `COc1ccc(S(=O)(=O)N(C)c2ccc(C(=O)NCC3CCCO3)cc2)cc1` (configuration not stated), the Potency was active: 2.82 µM. For `C=CCNC(=O)/C(C#N)=C/c1c(N2CC(C)OC(C)C2)nc2ccccn2c1=O` (configuration not stated), the Potency was inconclusive [inhibitor, partial curve]. With `CC1(C)CCC2(C(=O)O)CC[C@]3(C)C(=CCC4[C@]5(C)CCC(O)C(C)(C)C5C(O)C[C@]43C)C2C1` (some centres not stated) the Potency was inconclusive [inhibitor, single point]. In the case of `CCOc1cc(/C=C2/C(=N)N3OC(C)=CC3=NC2=O)ccc1OCCOc1ccccc1`, the Potency was inconclusive [inhibitor, partial curve]. In the case of `Cc1ccc2cc(CN(Cc3nnnn3C3CCCC3)C3CCCCC3)c(=O)[nH]c2c1C`, the activity change, negative = inhibition was inactive: -7.53%. In the case of `O=C(O)c1ccc(-n2c(-c3ccc(Br)cc3)n[nH]c2=S)cc1`, the Potency was inconclusive [inhibitor, partial curve]. `CC(=O)c1ccc(OCC(=O)c2ccc(-c3ccccc3)cc2)cc1` was tested, and the activity change, negative = inhibition was inactive: -9.98%. `COc1ccc2cc(C(=O)NCc3ccco3)c(=O)oc2c1` was tested, and the Potency was inconclusive [inhibitor, partial curve]. For `Cc1cccc(Sc2c([N+](=O)[O-])ncn2C)c1`, the Potency was active: 5.01 µM. With `CCCCSc1nc(C)[nH]c1[N+](=O)[O-]` the activity change, negative = inhibition was inactive: 0.74%. For `Clc1ccc(N2CCN(c3ncnc4c3oc3ccccc34)CC2)cc1`, the Potency was inconclusive [inhibitor, partial curve]. For `Cc1ccccc1NC(=O)CSCCN1C(=O)c2ccccc2C1=O`, the Potency was inconclusive [inhibitor, partial curve]. `Cc1ccnc(SCCn2c(N3CCC(C)CC3)nc3c2c(=O)[nH]c(=O)n3C)n1` was tested, and the activity change, negative = inhibition was inactive: -5.76%. For `CCOC(=O)c1c(-c2ccc(C)o2)csc1NC(=O)CSc1nnc(C)s1`, the Potency was inconclusive [inhibitor, single point]. In the case of `Cn1c(-c2ccccc2O)cc2ccccc21`, the Potency was inconclusive [inhibitor, partial curve]. With `COC(=O)Cn1c(=NC(=O)c2ccc(S(=O)(=O)N3CCc4ccccc4C3)cc2)sc2cc(OC)ccc21` the Potency was inconclusive [inhibitor, partial curve]. In the case of `Cc1cc(C)c(C)c(S(=O)(=O)NCc2ccc(C(=O)N3CCCCC3)cc2)c1C`, the Potency was active: 2 µM. `Cc1cc2ccccc2c[n+]1CC(O)C[n+]1cc2ccccc2cc1C` was tested, and the activity change, negative = inhibition was inactive: -12.9%. For `COC(=O)c1ccc(Cn2cnc3c(sc4nc(N5CCOCC5)c5c(c43)CCCC5)c2=O)o1`, the Potency was inconclusive [inhibitor, partial curve]. In the case of `COC(=O)c1c(NC(=O)c2ccc(C)o2)sc2c1CCCCC2`, the Potency was inconclusive [inhibitor, partial curve]. `Cc1c(Br)c([N+](=O)[O-])nn1C(C)C(=O)N1CCCc2ccccc21` (configuration not stated) was tested, and the activity change, negative = inhibition was inactive: -4.49%. With `CC1=C(C(=O)Nc2cccc(C)n2)C(c2ccc3c(c2)OCO3)C2=C(CC(c3ccco3)CC2=O)N1` (configuration not stated) the Potency was inconclusive [inhibitor, partial curve]. With `Cc1c(C2=CCN(S(=O)(=O)c3ccc(Cl)cc3)CC2)c2ccccc2n1C` the Potency was inconclusive [inhibitor, single point]. For `Cc1c(-c2ccccc2)c(P(=O)(N2CCOCC2)N2CCOCC2)c2ccccn12`, the Potency was inconclusive [inhibitor, partial curve]. For `CC1Cn2c(nnc2-c2cc3ccccc3cc2O)S1` (configuration not stated), the Potency was inconclusive [inhibitor, partial curve]. For `Cc1ccc(CNC(=O)COC(=O)CSc2ccc(Br)cc2C)cc1`, the Potency was inconclusive [inhibitor, single point].
